Measurements from the antibiotic and cytotoxicity screens of Wong et al. (2023).
This is one part of the list.

Tested on: HSkMC (human skeletal muscle cells)
Assay: cytotoxicity call (relative viability < 0.9)
Settings: 10 µM

| SMILES | cytotoxicity call |
| --- | --- |
| C[C@H]1CN([C@@H](C)CO)C(=O)c2cc(NS(=O)(=O)c3ccc(F)cc3)ccc2O[C@@H]1CN(C)S(=O)(=O)c1ccc(F)cc1 | inactive |
| CN(C)[C@@H]1C(=O)[C@@H](C(N)=O)C(=O)[C@@]2(O)C(=O)[C@H]3C(=O)c4c(O)ccc(Cl)c4[C@@H](O)[C@H]3C[C@@H]12 | inactive |
| Nc1nc(CO)cs1 | inactive |
| COc1ccc(S(=O)(=O)N(C)C[C@H]2Oc3ccc(NC(=O)CCCN(C)C)cc3CC(=O)N([C@H](C)CO)C[C@H]2C)cc1 | inactive |
| O=C(C[C@@H]1C[C@@H]2c3cc(NS(=O)(=O)c4ccc(F)cc4)ccc3O[C@@H]2[C@H](CO)O1)N1CCCCC1 | inactive |
| C[C@@H]1CN([C@H](C)CO)C(=O)c2cc(NC(=O)Nc3ccc(C(F)(F)F)cc3)ccc2O[C@@H](C)CCCCO[C@H]1CN(C)S(=O)(=O)c1ccc(F)cc1 | inactive |
| COc1cc(OC)c(CN(CC#CCOC(=O)NCCCCCC(=O)NO)S(=O)(=O)c2ccccc2[N+](=O)[O-])c(OC)c1 | inactive |
| CCOC(=O)N(C)C[C@H]1OCc2cnnn2CCCC(=O)N([C@@H](C)CO)C[C@H]1C | inactive |
| C[C@H]1CCCCO[C@H](CN(C)C(=O)Nc2cccc3ccccc23)[C@@H](C)CN([C@@H](C)CO)C(=O)c2cc(NS(=O)(=O)c3ccc(F)cc3)ccc2O1 | active |
| CC1(C)[C@H]2CC[C@@]1(C)/C(=N/O)C2 | inactive |
| CN(C)CC(=O)N1CC(=O)N2[C@H](C1)[C@H](c1ccc(C#Cc3cccnc3)cc1)[C@@H]2CO | inactive |
| Cc1noc(C)c1NC(=O)Nc1ccc2c(c1)CC(=O)N([C@H](C)CO)C[C@@H](C)[C@H](CN(C)S(=O)(=O)c1cn(C)cn1)O2 | inactive |
| C[C@@H]1CCCCO[C@@H](CN(C)C(=O)Nc2cccc3ccccc23)[C@H](C)CN([C@H](C)CO)C(=O)c2cc(NS(=O)(=O)c3ccc(Cl)cc3)ccc2O1 | inactive |
| CN1C(=O)c2cc(NC(=O)c3cnccn3)ccc2OC[C@H]2O[C@H](CC(=O)NCC3CCCCC3)CC[C@@H]21 | inactive |
| CCS(=O)(=O)Nc1ccc2c(c1)C(=O)N(C)C[C@@H](OC)[C@H](C)CN(C(=O)c1ccc3c(c1)OCO3)[C@H](C)CO2 | inactive |
| NCCCCCNC(=O)[C@@H]1C[C@@H]2C(=O)NCC(=O)N2[C@@H]1c1cccc(OCCO)c1 | inactive |
| C[C@@H]1CCCCO[C@H](CN(C)C(=O)NC2CCCCC2)[C@@H](C)CN([C@H](C)CO)C(=O)c2cc(NC(=O)c3ccncc3)ccc2O1 | inactive |
| COc1ccc(cc1)CN1C[C@]2(CCN(CC2)C(=O)Nc2cccc(c2)F)c2c([nH]c3cc(ccc23)OC)[C@@H]1CO | inactive |
| COCC#Cc1ccc2c(c1)O[C@@H](CN(C)S(=O)(=O)c1ccc(F)cc1)[C@H](C)CN([C@@H](C)CO)S2(=O)=O | inactive |
| COc1ccccc1S(=O)(=O)N[C@H]1CC[C@@H](CCNC(=O)C2CCOCC2)O[C@@H]1CO | inactive |
| Cc1ccc(S(=O)(=O)Nc2ccc3c(c2)C(=O)N([C@H](C)CO)C[C@@H](C)[C@@H](CN(C)C(=O)CCC(F)(F)F)OCCCC[C@H](C)O3)cc1 | inactive |
| COc1ccc(NC(=O)N(C)C[C@@H]2Oc3c(NC(=O)c4cnccn4)cccc3C(=O)N([C@H](C)CO)C[C@@H]2C)cc1 | inactive |
| COc1ccc(NC(=O)Nc2ccc3c(c2)C(=O)N([C@H](C)CO)C[C@H](C)[C@H](CN(C)C(=O)NC(C)C)OCCCC[C@H](C)O3)cc1 | inactive |
| Cc1noc(C)c1NC(=O)N(C)C[C@@H]1Oc2c(NC(=O)c3ccncc3)cccc2C(=O)N([C@H](C)CO)C[C@@H]1C | inactive |
| c1ccc(-c2nn[nH]n2)cc1 | inactive |
| C[C@@H]1CN([C@H](C)CO)C(=O)Cc2cc(NC(=O)CCN3CCOCC3)ccc2O[C@H]1CN(C)Cc1ccc(C(=O)O)cc1 | inactive |
| CCc1ccccc1C(=O)N1CCC[C@@H](Cn2cc(C(C)(C)N)nn2)C1 | inactive |
| COCC#Cc1ccc2c(c1)O[C@@H](CN(C)S(=O)(=O)c1ccc(OC)cc1)[C@H](C)CN([C@H](C)CO)S2(=O)=O | inactive |
| CNC[C@H]1OCCCC[C@@H](C)Oc2ccc(NS(=O)(=O)c3cn(C)cn3)cc2C(=O)N([C@H](C)CO)C[C@@H]1C | inactive |
| Cc1noc(C)c1NC(=O)Nc1ccc2c(c1)CC(=O)N([C@H](C)CO)C[C@@H](C)[C@H](CN(C)S(C)(=O)=O)O2 | inactive |
